This is one part of the list. The list includes weakly bound sequences.
Target: T1, MBP-FoxP3dN (UniProt Q99JB6)
T1 sequence: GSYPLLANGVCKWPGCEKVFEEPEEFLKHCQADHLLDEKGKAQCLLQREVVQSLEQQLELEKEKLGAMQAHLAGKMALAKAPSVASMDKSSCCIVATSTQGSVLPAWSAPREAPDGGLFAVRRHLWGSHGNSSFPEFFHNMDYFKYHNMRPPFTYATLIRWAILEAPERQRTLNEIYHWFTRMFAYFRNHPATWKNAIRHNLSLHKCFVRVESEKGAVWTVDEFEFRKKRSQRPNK
Assay: PD-seq (MBP pull-down with sequencing)
Settings: 20 mM Tris-HCl pH 7.5, 100 mM NaCl, 1.5 mM MgCl2, 0.4 uM protein, 0.1 uM dsDNA library, 30 min, room temperature, amylose pull-down; high values mean tight binding; double strand, one strand shown

Q: Which binding signal (RPM ratio (pull-down/input)) does the source give for “GATGATTGTTCTCCCAGCTGATGAATTACCGCTGTCGAGTAAACAAATTTTCCTAATCTTTCTGTTCAAGCGCCATCTAC” here?
A: 0.443

Q: Which binding signal (RPM ratio (pull-down/input)) does the source give for “GATGATTGTTCTCCCAGCTGATGAATTTCGAGCTTCGAGTAAACAAATTTTCCTAATCTTTCTGTTCAAGCGCCATCTAC” here?
A: 0.301

Q: How did the binding signal (RPM ratio (pull-down/input)) turn out when “GATGATTGTTCTCCCAGCTGATGAATTTCCTGGTTCGAGTAAACAAATTTTCCTAATCTTTCTGTTCAAGCGCCATCTAC” was run?
A: 0.206

Q: Which binding signal (RPM ratio (pull-down/input)) does the source give for “GATGATTGTTCTCCCAGCTGATGAATTCTTCCCATCGAGTAAACAAATTTTCCTAATCTTTCTGTTCAAGCGCCATCTAC” here?
A: 0.214

Q: For “GATGATTGTTCTCCCAGCTGATGAATTCTTTAAATCGAGTAAACAAATTTTCCTAATCTTTCTGTTCAAGCGCCATCTAC”, which binding signal (RPM ratio (pull-down/input)) is on record?
A: 0.176

Q: With “GATGATTGTTCTCCCAGCTGATGAATTACCTCGGTCGAGTAAACAAATTTTCCTAATCTTTCTGTTCAAGCGCCATCTAC” as the sequence, how does the binding signal (RPM ratio (pull-down/input)) read?
A: 0.223

Q: With “GATGATTGTTCTCCCAGCTGATGAATTTATGAACTCGAGTAAACAAATTTTCCTAATCTTTCTGTTCAAGCGCCATCTAC” as the sequence, how does the binding signal (RPM ratio (pull-down/input)) read?
A: 0.58

Q: With “GATGATTGTTCTCCCAGCTGATGAATTATGAGAATCGAGTAAACAAATTTTCCTAATCTTTCTGTTCAAGCGCCATCTAC” as the sequence, how does the binding signal (RPM ratio (pull-down/input)) read?
A: 0.285

Q: Which binding signal (RPM ratio (pull-down/input)) does the source give for “GATGATTGTTCTCCCAGCTGATGAATTTCGAGCGTCGAGTAAACAAATTTTCCTAATCTTTCTGTTCAAGCGCCATCTAC” here?
A: 0.447

Q: How did the binding signal (RPM ratio (pull-down/input)) turn out when “GATGATTGTTCTCCCAGCTGATGAATTTTGTATATCGAGTAAACAAATTTTCCTAATCTTTCTGTTCAAGCGCCATCTAC” was run?
A: 7.43

Q: Which binding signal (RPM ratio (pull-down/input)) does the source give for “GATGATTGTTCTCCCAGCTGATGAATTGACTTCTTCGAGTAAACAAATTTTCCTAATCTTTCTGTTCAAGCGCCATCTAC” here?
A: 0.366

Q: “GATGATTGTTCTCCCAGCTGATGAATTGATTGTCTCGAGTAAACAAATTTTCCTAATCTTTCTGTTCAAGCGCCATCTAC” was tested. Which binding signal (RPM ratio (pull-down/input)) did it give?
A: 2.86

Q: With “GATGATTGTTCTCCCAGCTGATGAATTGTGCAATTCGAGTAAACAAATTTTCCTAATCTTTCTGTTCAAGCGCCATCTAC” as the sequence, how does the binding signal (RPM ratio (pull-down/input)) read?
A: 6.39

Q: For “GATGATTGTTCTCCCAGCTGATGAATTCGAGCAATCGAGTAAACAAATTTTCCTAATCTTTCTGTTCAAGCGCCATCTAC”, which binding signal (RPM ratio (pull-down/input)) is on record?
A: 1.65

Q: For “GATGATTGTTCTCCCAGCTGATGAATTAGCTCTATCGAGTAAACAAATTTTCCTAATCTTTCTGTTCAAGCGCCATCTAC”, which binding signal (RPM ratio (pull-down/input)) is on record?
A: 0.336

Q: Which binding signal (RPM ratio (pull-down/input)) does the source give for “GATGATTGTTCTCCCAGCTGATGAATTTGGTCCATCGAGTAAACAAATTTTCCTAATCTTTCTGTTCAAGCGCCATCTAC” here?
A: 0.436

Q: Which binding signal (RPM ratio (pull-down/input)) does the source give for “GATGATTGTTCTCCCAGCTGATGAATTCTGGCCATCGAGTAAACAAATTTTCCTAATCTTTCTGTTCAAGCGCCATCTAC” here?
A: 1.12

Q: With “GATGATTGTTCTCCCAGCTGATGAATTATCTAGATCGAGTAAACAAATTTTCCTAATCTTTCTGTTCAAGCGCCATCTAC” as the sequence, how does the binding signal (RPM ratio (pull-down/input)) read?
A: 0.241

Q: “GATGATTGTTCTCCCAGCTGATGAATTAGTCGGCTCGAGTAAACAAATTTTCCTAATCTTTCTGTTCAAGCGCCATCTAC” was tested. Which binding signal (RPM ratio (pull-down/input)) did it give?
A: 0.399

Q: For “GATGATTGTTCTCCCAGCTGATGAATTCATAGGCTCGAGTAAACAAATTTTCCTAATCTTTCTGTTCAAGCGCCATCTAC”, which binding signal (RPM ratio (pull-down/input)) is on record?
A: 0.321

Q: How did the binding signal (RPM ratio (pull-down/input)) turn out when “GATGATTGTTCTCCCAGCTGATGAATTTATGGCATCGAGTAAACAAATTTTCCTAATCTTTCTGTTCAAGCGCCATCTAC” was run?
A: 1.43

Q: Which binding signal (RPM ratio (pull-down/input)) does the source give for “GATGATTGTTCTCCCAGCTGATGAATTGAACGGTTCGAGTAAACAAATTTTCCTAATCTTTCTGTTCAAGCGCCATCTAC” here?
A: 0.309

Q: “GATGATTGTTCTCCCAGCTGATGAATTTCATTTATCGAGTAAACAAATTTTCCTAATCTTTCTGTTCAAGCGCCATCTAC” was tested. Which binding signal (RPM ratio (pull-down/input)) did it give?
A: 1.69

Q: With “GATGATTGTTCTCCCAGCTGATGAATTTGGAATCTCGAGTAAACAAATTTTCCTAATCTTTCTGTTCAAGCGCCATCTAC” as the sequence, how does the binding signal (RPM ratio (pull-down/input)) read?
A: 1.64

Q: Which binding signal (RPM ratio (pull-down/input)) does the source give for “GATGATTGTTCTCCCAGCTGATGAATTCATAGTGTCGAGTAAACAAATTTTCCTAATCTTTCTGTTCAAGCGCCATCTAC” here?
A: 0.918

Q: With “GATGATTGTTCTCCCAGCTGATGAATTTACAAAGTCGAGTAAACAAATTTTCCTAATCTTTCTGTTCAAGCGCCATCTAC” as the sequence, how does the binding signal (RPM ratio (pull-down/input)) read?
A: 0.258

Q: Which binding signal (RPM ratio (pull-down/input)) does the source give for “GATGATTGTTCTCCCAGCTGATGAATTTTTAATGTCGAGTAAACAAATTTTCCTAATCTTTCTGTTCAAGCGCCATCTAC” here?
A: 0.35

Q: “GATGATTGTTCTCCCAGCTGATGAATTCGACTGTTCGAGTAAACAAATTTTCCTAATCTTTCTGTTCAAGCGCCATCTAC” was tested. Which binding signal (RPM ratio (pull-down/input)) did it give?
A: 0.593

Q: Which binding signal (RPM ratio (pull-down/input)) does the source give for “GATGATTGTTCTCCCAGCTGATGAATTGCGTTGATCGAGTAAACAAATTTTCCTAATCTTTCTGTTCAAGCGCCATCTAC” here?
A: 1.7

Q: “GATGATTGTTCTCCCAGCTGATGAATTGGCAGCATCGAGTAAACAAATTTTCCTAATCTTTCTGTTCAAGCGCCATCTAC” was tested. Which binding signal (RPM ratio (pull-down/input)) did it give?
A: 0.886

Q: For “GATGATTGTTCTCCCAGCTGATGAATTCTTATGATCGAGTAAACAAATTTTCCTAATCTTTCTGTTCAAGCGCCATCTAC”, which binding signal (RPM ratio (pull-down/input)) is on record?
A: 0.341

Q: For “GATGATTGTTCTCCCAGCTGATGAATTCAATCCCTCGAGTAAACAAATTTTCCTAATCTTTCTGTTCAAGCGCCATCTAC”, which binding signal (RPM ratio (pull-down/input)) is on record?
A: 0.315

Q: For “GATGATTGTTCTCCCAGCTGATGAATTTATATAGTCGAGTAAACAAATTTTCCTAATCTTTCTGTTCAAGCGCCATCTAC”, which binding signal (RPM ratio (pull-down/input)) is on record?
A: 1.39

Q: Which binding signal (RPM ratio (pull-down/input)) does the source give for “GATGATTGTTCTCCCAGCTGATGAATTGATAATGTCGAGTAAACAAATTTTCCTAATCTTTCTGTTCAAGCGCCATCTAC” here?
A: 0.495

Q: “GATGATTGTTCTCCCAGCTGATGAATTAGTTTCGTCGAGTAAACAAATTTTCCTAATCTTTCTGTTCAAGCGCCATCTAC” was tested. Which binding signal (RPM ratio (pull-down/input)) did it give?
A: 2.39

Q: How did the binding signal (RPM ratio (pull-down/input)) turn out when “GATGATTGTTCTCCCAGCTGATGAATTTCGCCTGTCGAGTAAACAAATTTTCCTAATCTTTCTGTTCAAGCGCCATCTAC” was run?
A: 5.23

Q: “GATGATTGTTCTCCCAGCTGATGAATTCCCCACCTCGAGTAAACAAATTTTCCTAATCTTTCTGTTCAAGCGCCATCTAC” was tested. Which binding signal (RPM ratio (pull-down/input)) did it give?
A: 0.213

Q: Which binding signal (RPM ratio (pull-down/input)) does the source give for “GATGATTGTTCTCCCAGCTGATGAATTGCGCTCTTCGAGTAAACAAATTTTCCTAATCTTTCTGTTCAAGCGCCATCTAC” here?
A: 1.2

Q: “GATGATTGTTCTCCCAGCTGATGAATTTGCAACGTCGAGTAAACAAATTTTCCTAATCTTTCTGTTCAAGCGCCATCTAC” was tested. Which binding signal (RPM ratio (pull-down/input)) did it give?
A: 2.24

Q: For “GATGATTGTTCTCCCAGCTGATGAATTTGCTACCTCGAGTAAACAAATTTTCCTAATCTTTCTGTTCAAGCGCCATCTAC”, which binding signal (RPM ratio (pull-down/input)) is on record?
A: 1.25

Reference: publication PMC12820563
